Data reported in PubChem BioAssay AID485281 (National Center for Advancing Translational Sciences (NCATS), 2010).
“And” between values parts separate entries of the source, which are not always exact repeats. Equal entries are not always repeated. In all, about 350,000 compounds went through this assay and about 260 (0.074%) were called active. Inconclusive results, whose numbers are uncertain, are shown with a selection of clear calls. The call rests on the fitted dose curve; in most records, active means well fitted inhibition curve with a large enough effect; inconclusive means small, poorly fitted or top-dose-only effect; inactive means no such curve, though single readings can be large or run the other way. A potency beside an inconclusive call is a rough fit, not a confirmed value.

Biological target: Ferritin light chain (Equus caballus) (UniProt P02791)
Assay: qHTS Assay for Identification of Novel General Anesthetics; further: nearly all actives have a fitted effect of over 20% in size
Conditions: apoferritin/1-aminoanthracene competitive binding, fluorescence; series mostly up to 77.5 µM
How it was run: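 Concentration-response curves derived by four-parameter Hill fitting of normalized fluorescence, where compounds displaced 1-AMA from 10 uM horse apoferritin following a brief 10 min room-temperature incubation; propofol titration acted as positive control.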
Potency means the concentration at half of the fitted maximal effect; tags describe the fitted curve by direction and shape.

Sequence of UniProt P02791 (P02791 whole entry, looked up): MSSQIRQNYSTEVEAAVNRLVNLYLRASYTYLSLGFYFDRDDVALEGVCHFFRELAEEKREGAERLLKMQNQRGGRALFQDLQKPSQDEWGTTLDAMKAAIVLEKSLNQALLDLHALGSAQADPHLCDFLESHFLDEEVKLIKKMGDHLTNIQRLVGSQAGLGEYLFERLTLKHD

Potency, inactive:
Cc1ccc(/C=C(\NC(=O)c2ccccc2)C(=O)NCC2CCCO2)o1 (stereo not given), Cc1cccc(N2C(=O)c3cccc4c(N(C)CCO)ccc(c34)C2=O)c1, C/C(CC(=O)Nc1cccc2c1CCCC2)=N\NC(=O)c1cccc2ccccc12, Cn1ncc(S(=O)(=O)Cc2ccccc2)c(Cl)c1=O, Cc1coc2cc3oc(=O)c(CC(=O)NCc4ccccc4)c(C)c3cc12, NC(N)=Nc1nc(C2COc3ccccc3O2)cs1 (stereo not given), Cc1ccccc1C(=O)Nc1nnc(CC(=O)N/N=C/c2ccco2)s1, O=S(=O)(c1ccccc1C(F)(F)F)N1CCN(S(=O)(=O)c2ccccc2C(F)(F)F)CC1, CC(C)c1ccccc1NC(=O)CSc1nnc(COc2ccccc2Cl)o1, CCN(c1ccc(OC)cc1)c1ncnc2nc[nH]c12, COc1ccc(-c2nc(NC(=O)CSc3nnc(C)s3)ns2)cc1, O=C(CN1CCN(c2ccccn2)CC1)Nc1cccc(S(=O)(=O)N2CCOCC2)c1, CN(C)c1oc(-c2ccc(COc3ccccc3)o2)nc1C#N, S=c1[nH]nc(-c2ccccn2)n1/N=C/c1cccc2ccccc12

Potency, inconclusive:
CN1C(=O)Cc2cc(S(=O)(=O)N3CCN(c4cccc(C(F)(F)F)c4)CC3)ccc21 25.1 µM [inhibitor, partial curve] and 5.01 µM [inhibitor, full curve], COc1ccc(/C(C)=N/NC(=S)Nc2cc(C)ccc2C)cc1 15.8 µM [inhibitor, partial curve], COc1ccc2cc(CN(CC3CCCO3)S(=O)(=O)c3ccccc3Cl)c(=O)[nH]c2c1 (stereo not given) 31.6 µM [inhibitor, partial curve], CC1CCC2C(=O)N(c3ccc(C(=O)NCc4ccccc4)cc3)C(=O)C2C1 (stereo not given) 35.5 µM [inhibitor, single point], CCCCOc1ccc(CNC(=O)c2ccc(NC(=O)N3CCSc4ncccc43)cc2)cc1 50.1 µM [inhibitor, single point], O=C(CSc1nncs1)Nc1ccc2c(c1)OCCO2 39.8 µM [inhibitor, single point], Nc1[nH]nc2nc(NCc3ccccc3)c3c(c12)CCN(Cc1ccccc1)C3 31.6 µM [inhibitor, partial curve, poor fit], CCC(C)[C@@H](NC(=O)OC(C)(C)C)c1nnc(S(=O)(=O)Cc2cccc(C)c2)o1 (stereo not given in full) 20 µM [inhibitor, partial curve], O=C1C2CC=CCC2C(=O)N1Cc1ccccc1 (stereo not given) 22.4 µM [inhibitor, partial curve], COc1ccc(C(c2c[nH]c3ccccc23)c2c[nH]c3ccccc23)cc1O 25.1 µM [inhibitor, partial curve], COc1ccc(-n2nnnc2/C=C\Nc2ccccc2C(=O)c2ccccc2)cc1 39.8 µM [inhibitor, partial curve], COc1cccc(-c2cnc(NCc3ccccc3Cl)n2C)c1 22.4 µM [inhibitor, partial curve], Cc1ccc(C(=O)COC(=O)CNC(=O)Cc2ccccc2)cc1[N+](=O)[O-] 12.6 µM [inhibitor, partial curve], CCOc1ccccc1NC(=O)c1cc(S(=O)(=O)NC2CCCC2)ccc1F 7.08 µM [inhibitor, full curve, poor fit], Oc1ccccc1N=Nc1nc(-c2ccccc2)c(-c2ccccc2)[nH]1 31.6 µM [inhibitor, partial curve], O=C(NCc1ccccc1)C12CC3CC(CC(C3)C1)C2 12.6 µM [inhibitor, partial curve], COc1ccc(-c2nc(SCC(=O)NC3CCCCC3)n[nH]2)cc1 50.1 µM [inhibitor, partial curve], ClCc1nnc(-c2cc3c(s2)CCCC3)o1 20 µM [inhibitor, partial curve], CCNC(=O)n1nccc1C(C)Oc1ccc(Cl)cc1 (stereo not given) 56.2 µM [inhibitor, single point], C[C@H](NS(=O)(=O)OCC(Cl)(Cl)Cl)C1CC1c1ccccc1 (stereo not given in full) 35.5 µM [inhibitor, partial curve], CC1CCCN(C(C(=O)NC2CCCCC2)c2cc3c(cc2[N+](=O)[O-])OCO3)C1 (stereo not given) 28.2 µM [inhibitor, partial curve], O=C(CNc1cccc2ccccc12)N/N=C/c1ccc([N+](=O)[O-])cc1 5.01 µM [inhibitor, full curve], CC(C)c1ccc(OCC(O)Cn2cnc3ccccc32)cc1 (stereo not given) 31.6 µM [inhibitor, single point], O=C(CCCC(=O)OCC(=O)c1cccs1)Nc1ccc(Oc2ccccc2)cc1 25.1 µM [inhibitor, partial curve], CC1Cc2ccccc2N1C(=O)/C=C/c1cccc(F)c1 (stereo not given) 31.6 µM [inhibitor, partial curve], Nc1ccc2nc(C3CCCCC3)[nH]c2c1 35.5 µM [inhibitor, partial curve], Cc1cc(C(=O)CS(=O)(=O)c2ccc(Cl)cc2)cc(C)c1O 28.2 µM [inhibitor, single point], Cc1ccc(OCc2n[nH]c(=S)n2C2CCCCC2)cc1 35.5 µM [inhibitor, single point], CCN(c1cc(C)cc(C)c1)S(=O)(=O)c1nnc(NC(=O)c2cccc(F)c2)s1 11.2 µM [inhibitor, full curve, poor fit], Nn1cnnc1N/N=C/c1cc([N+](=O)[O-])c(Cl)cc1Cl 50.1 µM [inhibitor, single point], CC1(C)OC(=O)N(NCc2ccccc2)C1(C)O (stereo not given) 50.1 µM [inhibitor, single point], CCOC(=O)N1CCC(NC(=O)c2cnn(-c3ccc(C)cc3C)c2C2CCN(C(=O)OC(C)(C)C)CC2)CC1 3.16 µM [inhibitor, full curve], CCN1/C(=C/c2sc(-c3ccccc3C)c[n+]2C)Sc2ccccc21 14.1 µM [inhibitor, partial curve], Clc1ccccc1CSc1cc2c(nn1)-c1ccccc1CC2 12.6 µM [inhibitor, partial curve], C/C(=N/OC(=O)c1ccccc1Br)c1ccc(C)cc1 11.2 µM [inhibitor, partial curve], CCCCN(C(=O)NC(=O)Nc1ccccc1OCC)S(C)(=O)=O 50.1 µM [inhibitor, single point], CC(C)(C)c1ccc(Oc2nc3ccccn3c(=O)c2/C=C(\C#N)c2nc3ccccc3s2)cc1 14.1 µM [inhibitor, partial curve], Cc1cc(C)cc(NC(=O)CSc2nc(=O)[nH]c3c2CCC3)c1 12.6 µM [inhibitor, full curve, poor fit], CCN(CC)S(=O)(=O)c1cc(C(=O)Nc2cc(Cl)ccc2N2CCN(C)CC2)ccc1Cl 39.8 µM [inhibitor, partial curve], O=c1cc(-c2cc(O)c(O)c(O)c2)oc2cc(O)cc(O)c12 39.8 µM [inhibitor, partial curve], Oc1ccc(-c2nnc(SCC3CCCCC3)o2)cc1 35.5 µM [inhibitor, partial curve], O=C(Cc1ccc(S(=O)(=O)N2CCOCC2)s1)NCC1CCCCC1 35.5 µM [inhibitor, single point], CC1=NN(C(N)=S)C(=O)C1N=Nc1c(Br)cc(Br)cc1Br (stereo not given) 10 µM [inhibitor, partial curve], Cc1nn(-c2ccccc2)c(Cl)c1C1C(C#N)=C(N)OC2=C1C(=O)CCC2 (stereo not given) 14.1 µM [inhibitor, partial curve], CC(=O)O[C@@]12CO[C@@H]1C[C@H](O)[C@@]1(C)C(=O)[C@H](O)C3=C(C)[C@@H](OC(=O)[C@H](O)[C@@H](NC(=O)OC(C)(C)C)c4ccccc4)C[C@](O)([C@@H](OC(=O)c4ccccc4)[C@H]21)C3(C)C 11.2 µM [inhibitor, partial curve], CSc1ccccc1OCc1cc(C(=O)N(C)Cc2ccc3nsnc3c2)no1 5.62 µM [inhibitor, single point], CC1(C)N=C(SCC(=O)Nc2ccc(Cl)cc2)C(c2ccc(Cl)cc2)=N1 25.1 µM [inhibitor, partial curve], O=C(Nc1ccc(Nc2ccccc2)cc1)c1ccc(F)cc1 39.8 µM [inhibitor, single point], COc1ccccc1CNC(=O)c1cc2sccc2n1C 22.4 µM [inhibitor, partial curve], O=[N+]([O-])c1ccc(N2CCCCC2)cc1SCCO 39.8 µM [inhibitor, single point], Nc1nonc1C(=O)NCCN=Cc1cc(Cc2ccccc2)cc(Br)c1O 35.5 µM [inhibitor, partial curve]
